Assay results published in paper PMC9911399, “Two distinct binding modes provide the RNA-binding protein RbFox with extraordinary sequence specificity”.
Changes are numbered by the printed parent chain; changes in the protein carry UniProt numbers. Some of the results follow.

T1: RBFOX1 RRM (Homo sapiens, UniProt Q9NWB1 109-208)
T1 sequence: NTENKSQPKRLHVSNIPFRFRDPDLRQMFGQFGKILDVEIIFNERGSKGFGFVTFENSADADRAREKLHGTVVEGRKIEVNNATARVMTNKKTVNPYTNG

B1: GAAGAGC (DNA:RNA)
RNA: GGGAGACCGGAAUUCAGAUUGUCCGAAGAGCUUAAAUCCCGUCGUAGCCACCA
DNA 1: CAATCTGAATTCCGGTCTCCC
DNA 2: TGGTGGCTACGACGGGATT
B2: CGUAGUU (DNA:RNA)
RNA: GGGAGACCGGAAUUCAGAUUGUCCCGUAGUUUUAAAUCCCGUCGUAGCCACCA
DNA 1: CAATCTGAATTCCGGTCTCCC
DNA 2: TGGTGGCTACGACGGGATT
B3: GGCAAAA (DNA:RNA)
RNA: B2 RNA with C25G, U27C, G29A, U30A, U31A
DNA 1: CAATCTGAATTCCGGTCTCCC
DNA 2: TGGTGGCTACGACGGGATT
B4: ACGAAUA (DNA:RNA)
RNA: B2 RNA with C25A, G26C, U27G, G29A, U31A
DNA 1: CAATCTGAATTCCGGTCTCCC
DNA 2: TGGTGGCTACGACGGGATT
B5: GUAAUUU (DNA:RNA)
RNA: B2 RNA with C25G, G26U, U27A, G29U
DNA 1: CAATCTGAATTCCGGTCTCCC
DNA 2: TGGTGGCTACGACGGGATT
B6: AUUCAUG (DNA:RNA)
RNA: B2 RNA with C25A, G26U, A28C, G29A, U31G
DNA 1: CAATCTGAATTCCGGTCTCCC
DNA 2: TGGTGGCTACGACGGGATT
B7: GAUUUGU (DNA:RNA)
RNA: B1 RNA with A27U, G28U, A29U, C31U
DNA 1: CAATCTGAATTCCGGTCTCCC
DNA 2: TGGTGGCTACGACGGGATT
B8: UCGCACU (DNA:RNA)
RNA: B2 RNA with C25U, G26C, U27G, A28C, G29A, U30C
DNA 1: CAATCTGAATTCCGGTCTCCC
DNA 2: TGGTGGCTACGACGGGATT
B9: UUUGACU (DNA:RNA)
RNA: B2 RNA with C25U, G26U, A28G, G29A, U30C
DNA 1: CAATCTGAATTCCGGTCTCCC
DNA 2: TGGTGGCTACGACGGGATT
B10: GAUCCAU (DNA:RNA)
RNA: B2 RNA with C25G, G26A, A28C, G29C, U30A
DNA 1: CAATCTGAATTCCGGTCTCCC
DNA 2: TGGTGGCTACGACGGGATT
B11: CGCCAGG (DNA:RNA)
RNA: B2 RNA with U27C, A28C, G29A, U30G, U31G
DNA 1: CAATCTGAATTCCGGTCTCCC
DNA 2: TGGTGGCTACGACGGGATT
B12: UUAUAUG (DNA:RNA)
RNA: B1 RNA with G25U, A26U, G28U, G30U, C31G
DNA 1: CAATCTGAATTCCGGTCTCCC
DNA 2: TGGTGGCTACGACGGGATT
B13: GUCGCGC (DNA:RNA)
RNA: B1 RNA with A26U, A27C, A29C
DNA 1: CAATCTGAATTCCGGTCTCCC
DNA 2: TGGTGGCTACGACGGGATT
B14: UAAACGA (DNA:RNA)
RNA: B1 RNA with G25U, G28A, A29C, C31A
DNA 1: CAATCTGAATTCCGGTCTCCC
DNA 2: TGGTGGCTACGACGGGATT
B15: GCCCCCA (DNA:RNA)
RNA: B1 RNA with A26C, A27C, G28C, A29C, G30C, C31A
DNA 1: CAATCTGAATTCCGGTCTCCC
DNA 2: TGGTGGCTACGACGGGATT
B16: GCAGUCC (DNA:RNA)
RNA: B1 RNA with A26C, A29U, G30C
DNA 1: CAATCTGAATTCCGGTCTCCC
DNA 2: TGGTGGCTACGACGGGATT
B17: UCUAGUU (DNA:RNA)
RNA: B2 RNA with C25U, G26C
DNA 1: CAATCTGAATTCCGGTCTCCC
DNA 2: TGGTGGCTACGACGGGATT
B18: CCUUGUA (DNA:RNA)
RNA: B2 RNA with G26C, A28U, U31A
DNA 1: CAATCTGAATTCCGGTCTCCC
DNA 2: TGGTGGCTACGACGGGATT
B19: CCGAUUU (DNA:RNA)
RNA: B2 RNA with G26C, U27G, G29U
DNA 1: CAATCTGAATTCCGGTCTCCC
DNA 2: TGGTGGCTACGACGGGATT
B20: GAGUACU (DNA:RNA)
RNA: B1 RNA with A27G, G28U, G30C, C31U
DNA 1: CAATCTGAATTCCGGTCTCCC
DNA 2: TGGTGGCTACGACGGGATT
B21: UCGCCCC (DNA:RNA)
RNA: B1 RNA with G25U, A26C, A27G, G28C, A29C, G30C
DNA 1: CAATCTGAATTCCGGTCTCCC
DNA 2: TGGTGGCTACGACGGGATT
B22: CCUUAUA (DNA:RNA)
RNA: B2 RNA with G26C, A28U, G29A, U31A
DNA 1: CAATCTGAATTCCGGTCTCCC
DNA 2: TGGTGGCTACGACGGGATT
B23: ACGGACA (DNA:RNA)
RNA: B1 RNA with G25A, A26C, A27G, G30C, C31A
DNA 1: CAATCTGAATTCCGGTCTCCC
DNA 2: TGGTGGCTACGACGGGATT
B24: GGCCCGU (DNA:RNA)
RNA: B2 RNA with C25G, U27C, A28C, G29C, U30G
DNA 1: CAATCTGAATTCCGGTCTCCC
DNA 2: TGGTGGCTACGACGGGATT
B25: AUAACCA (DNA:RNA)
RNA: B2 RNA with C25A, G26U, U27A, G29C, U30C, U31A
DNA 1: CAATCTGAATTCCGGTCTCCC
DNA 2: TGGTGGCTACGACGGGATT
B26: AAGAACU (DNA:RNA)
RNA: B2 RNA with C25A, G26A, U27G, G29A, U30C
DNA 1: CAATCTGAATTCCGGTCTCCC
DNA 2: TGGTGGCTACGACGGGATT
B27: AAUACCA (DNA:RNA)
RNA: B2 RNA with C25A, G26A, G29C, U30C, U31A
DNA 1: CAATCTGAATTCCGGTCTCCC
DNA 2: TGGTGGCTACGACGGGATT
B28: CCGGGAG (DNA:RNA)
RNA: B2 RNA with G26C, U27G, A28G, U30A, U31G
DNA 1: CAATCTGAATTCCGGTCTCCC
DNA 2: TGGTGGCTACGACGGGATT
B29: UAAUUGG (DNA:RNA)
RNA: B1 RNA with G25U, G28U, A29U, C31G
DNA 1: CAATCTGAATTCCGGTCTCCC
DNA 2: TGGTGGCTACGACGGGATT
B30: AAGCCUC (DNA:RNA)
RNA: B1 RNA with G25A, A27G, G28C, A29C, G30U
DNA 1: CAATCTGAATTCCGGTCTCCC
DNA 2: TGGTGGCTACGACGGGATT
B31: GUUUUGC (DNA:RNA)
RNA: B1 RNA with A26U, A27U, G28U, A29U
DNA 1: CAATCTGAATTCCGGTCTCCC
DNA 2: TGGTGGCTACGACGGGATT

Target: T1, RBFOX1 RRM
Assay: EMSA; HiTS-Eq, 1 nM pool, 10 min; buffer printed only for the single-RNA assays: 10 mM Tris pH 7.5, 150 mM NaCl, 3.4 mM EDTA, 0.001% NP-40, 30 C
Conditions: tags: His6 N-terminal (pET28a); label: 5' 32P
Procedure, shortened: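 A pool of RNA with 7 randomized nucleotides, 5′-radiolabelled and with DNA-annealed flanks, was equilibrated at 1 nM for 10 min in 50 µL with purified RbFox RRM, wild type or mutant, across increasing protein concentrations. Free RNA was separated by 8% native PAGE, excised, reverse-transcribed, barcoded by PCR and sequenced. Relative association constants were obtained from read-count changes of each RNA species versus the control reaction and normalised to the cognate motif.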

Binder | binding signal
B1 | 0.013 KA relative to UGCAUGU
B2 | 0.00919 KA relative to UGCAUGU
B3 | 0.00604 KA relative to UGCAUGU
B4 | 0.00301 KA relative to UGCAUGU
B5 | 0.00581 KA relative to UGCAUGU
B6 | 0.00382 KA relative to UGCAUGU
B7 | 0.0225 KA relative to UGCAUGU
B8 | 0.01 KA relative to UGCAUGU
B9 | 0.0155 KA relative to UGCAUGU
B10 | 0.00442 KA relative to UGCAUGU
B11 | 0.0105 KA relative to UGCAUGU
B12 | 0.00888 KA relative to UGCAUGU
B13 | 0.0169 KA relative to UGCAUGU
B14 | 0.0066 KA relative to UGCAUGU
B15 | 0.00457 KA relative to UGCAUGU
B16 | 0.0101 KA relative to UGCAUGU

Binder | binding signal
B17 | 0.00906 KA relative to UGCAUGU
B18 | 0.0102 KA relative to UGCAUGU
B19 | 0.0105 KA relative to UGCAUGU
B20 | 0.00657 KA relative to UGCAUGU
B21 | 0.00674 KA relative to UGCAUGU
B22 | 0.00117 KA relative to UGCAUGU
B23 | 0.000702 KA relative to UGCAUGU
B24 | 0.0137 KA relative to UGCAUGU
B25 | 0.000262 KA relative to UGCAUGU
B26 | 0.00211 KA relative to UGCAUGU
B27 | 0.00351 KA relative to UGCAUGU
B28 | 0.0126 KA relative to UGCAUGU
B29 | 0.0122 KA relative to UGCAUGU
B30 | 0.00785 KA relative to UGCAUGU
B31 | 0.0225 KA relative to UGCAUGU
